Assays:
[1] = tested on: c-MET amplified SNU5 cells; experiment: Cell growth-inhibition assay (CellTiter 96 Aqueous One Solution, MTS); format: cell-based; conditions: Homo sapiens, SNU-5, 72 h, cytotoxic assay, drugs for 3 d
MET-amplified SNU5 cells = conditions: FIG. 12

Q: `Cc1[nH]c(/C=C2\C(=O)Nc3ccc(S(=O)(=O)Cc4c(Cl)cccc4Cl)cc32)c(C)c1C(=O)N1CCC[C@@H]1CN1CCCC1` [PHA665,752] was tested. Which IC50 [1] did it give?
A: 0.058 µM

Q: For `CS(=O)(=O)CCNCc1ccc(-c2ccc3ncnc(Nc4ccc(OCc5cccc(F)c5)c(Cl)c4)c3c2)o1` [lapatinib], which IC50 [1] is on record?
A: > 1 µM

Q: What about the HER2 activation (MET-amplified SNU5 cells) of the same compound?
A: unable to do so

Reference: US20170285044A1, “METHODS FOR PREDICTING AND IMPROVING THE SURVIVAL OF GASTRIC CANCER PATIENTS” (Pierian Holdings, Inc., priority 2011, published 2017)
